First the molecules themselves.
T1: UNK ZnF1-6 (called full-length) (human, UniProt Q9C0B0 30-357)
T1 sequence: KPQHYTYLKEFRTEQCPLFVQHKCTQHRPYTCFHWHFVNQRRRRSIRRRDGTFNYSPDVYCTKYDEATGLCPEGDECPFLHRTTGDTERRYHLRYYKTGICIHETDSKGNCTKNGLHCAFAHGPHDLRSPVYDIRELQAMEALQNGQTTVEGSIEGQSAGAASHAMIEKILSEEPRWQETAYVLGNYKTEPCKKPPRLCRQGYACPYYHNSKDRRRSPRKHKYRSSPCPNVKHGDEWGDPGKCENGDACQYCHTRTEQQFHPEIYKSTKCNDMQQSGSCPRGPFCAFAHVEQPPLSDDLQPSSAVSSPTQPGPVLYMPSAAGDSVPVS

B1: chr14:53951422:53951790:-|three_prime_utr|ENSG00000125378|control|control|control (ssRNA)
RNA: GGGAGUUCUACAGUCCGACGAUCUUUGGAGACAGAGGGGGAGGUGUUCAGGGGAAGGGGAAUGACAGCACUCAGACGUGGGCUAGCCCCAGCGGUGUGUUUUUGCUAUAUCAAAGCCUUUUCUGCUAGGUUUUCUGCCCGUUUCAACAGAGGAUUGAGCAUCA
B2: ENSG00000198589:be:win_8101|CDS|ENSG00000198589|bound_else_gene|NA|bound_elsewhere_windowed (ssRNA)
RNA: GGGAGUUCUACAGUCCGACGAUCGUGUUGAGUGGUUCACAAGAAGGACCAUGUCUCAUACAUUCCAUGAAUGGAGACUUGUUGAGGACCUUGGAGGGUCCUGAAAACUGCCUGAAACCAAAACUCAUUCAGGCUUCAAGAGAGCAACAGAGGAUUGAGCAUCA
B3: chr11:61866713:61866887:+|3pUTR|ENSG00000134824|msi1|FALSE|unique (ssRNA)
RNA: GGGAGUUCUACAGUCCGACGAUCCUCUCCUGUCUGAACCUGCCCUUACUGUGUUUAACCUGUUGCUCCAGGAUGCAUUCUGAUAGGAGGGGGCGGCAGGGCUGGGCCUUGUGACAAUCUGCCUUUCACCACAUGGCCUUGCCUCAACAGAGGAUUGAGCAUCA
B4: chr1:205790044:205790145:-|3pUTR|ENSG00000133065|msi1|FALSE|bound_elsewhere (ssRNA)
RNA: GGGAGUUCUACAGUCCGACGAUCAGAUUCUUCUGCCUCUUUCUCCUUUCCAGACCCCUACUCUGUGCAGUGCUGACCACAGCUAGAGCCACCGCCCCAUUGCUCAACCAGUAUUUAUUUCCCUAAACGACCCUUCCUCACAUUCAACAGAGGAUUGAGCAUCA
B5: chr1:180885316:180885399:+|3pUTR|ENSG00000143324|msi1_unk|FALSE|overlapping (ssRNA)
RNA: GGGAGUUCUACAGUCCGACGAUCUUGGCAGCCAUUUCUCCCAGCAGUUUUAAAGGAUGAACAUUGGAUUUCAUGCCAUCCCAUAGAAAACCUGUUUUAAAAUUUUAGGGAUCUUUACUUGGUCAUACAUGAAAAGUACACUGCCAACAGAGGAUUGAGCAUCA
B6: chr4:4235611:4235720:-|3pUTR|ENSG00000132406|unk|total|mutant (ssRNA)
RNA: GGGAGUUCUACAGUCCGACGAUCAUGACCGUUUUGUCCGGUGACAGGACCAAAUGAAAAUAUUUUAUGUUUUCUCAUCACUUCCGAUUUUAUCAUUAUGUACAUUACUGGGUUUUCCGCAUUUCCUAAUGUGAAGUUUUAAUCCAACAGAGGAUUGAGCAUCA
B7: chr11:113738268:113738383:-|CDS|ENSG00000086827|unk|FALSE|unique (ssRNA)
RNA: GGGAGUUCUACAGUCCGACGAUCUGCUUUUUGGCCCAAAUGCGGGCACAGAAAGGUGAACUUCUGGAAAGAUUAUCAAGUGCUAGGAACUUUUCAAAUAUGGACGAUGAAGAGAAUUAUUCUGCAGCAAGUAAAGCAGUCCGGCAACAGAGGAUUGAGCAUCA
B8: chr19:44386474:44388102:-|CDS|ENSG00000267508|control|control|control (ssRNA)
RNA: GGGAGUUCUACAGUCCGACGAUCGGCAUGUGGUAAGGGCUUCAGUCGUAAUUCAUACCUCCUUGCCCAUCAGAGAGUGCAUAUAGAUGAGACACAGUACACACACUGUGAGCGUGGAAAGGACCUUCUGACUCAUCAAAGACUCAACAGAGGAUUGAGCAUCA
B9: chr2:111862450:111862553:-|CDS|ENSG00000153107|unk|total|mutant (ssRNA)
RNA: GGGAGUUCUACAGUCCGACGAUCUCUUUUUCAGGGGUGCAAAGGUUCAACAUUUCAAGCCAUAAUCAGUCUCCAAAGAGACACCGUAUUUCUCAUUCUCCAAACCGUAAUUCUAAUGGCUCCUUUCUUGCACCAGAAACGGAGCAACAGAGGAUUGAGCAUCA
B10: chr10:73917138:73917420:+|3pUTR|ENSG00000122861|msi1|FALSE|unique (ssRNA)
RNA: GGGAGUUCUACAGUCCGACGAUCGGAAUGUAUUAUUCUGCAGCAUGACCUGUGACCAGCACUGUCUCAGUUUCACUUUCACAUAGAUGUCCCUUUCUUGGCCAGUUAUCCCUUCCUUUUAGCCUAGUUCAUCCAAUCCUCACUCAACAGAGGAUUGAGCAUCA
B11: chr10:73479331:73479449:-|CDS|ENSG00000107758|unk|FALSE|unique (ssRNA)
RNA: GGGAGUUCUACAGUCCGACGAUCGUUGAUGUUCUGAAGAACCACUUGGUGAAAGAAGGUCGAGUAGAUGAAGAAAUUGCGCUUAGAAUUAUCAAUGAGGGUGCUGCCAUCCUUCGGAGAGAGAAAACCAUGAUAGAAGUAGAACAACAGAGGAUUGAGCAUCA
B12: chr14:75048437:75048538:-|CDS|ENSG00000119684|unk|FALSE|unique (ssRNA)
RNA: GGGAGUUCUACAGUCCGACGAUCUCAGAAGCGUGUGACUUCCGAUGAGAGGAGCAAUUUCCAGGAAGCAUGUAAUAAUAUUUUAGAUUCCUAUGAGAUGUUUAAUUUGCAGUCAAAAGCUGUGAAAAGAAAAACUACUGCAGACAACAGAGGAUUGAGCAUCA
B13: chr12:54238554:54238587:-|3pUTR|ENSG00000094916|msi1_unk|FALSE|overlapping (ssRNA)
RNA: GGGAGUUCUACAGUCCGACGAUCGGGAGCACCCAUUUUAAACCUGGAGAGAACCAUGAUGUUUUCUUCUUCAAAUAACAAUCUAGUUUUUUUUCCCCCAGUACUAAAAUUGUAUUGUCUUUCAGACAAUAUAAUUUUUAUUUACAACAGAGGAUUGAGCAUCA
B14: chr5:133074000:133074114:+|CDS|ENSG00000170606|unk|total|mutant (ssRNA)
RNA: GGGAGUUCUACAGUCCGACGAUCUCUUGCAUAUGGAAUCUAUAAGCAGGAUCUUCCUGCCUCCGAAGAGAAACCAAGAAAUGCCGUUUUUGCCGACAUGGGCCACUCUGCUUAUCAAGUUUCUGUAUGUGCAUUUAACCGAGGCAACAGAGGAUUGAGCAUCA
B15: ENSG00000198589:be:win_5401|CDS|ENSG00000198589|bound_else_gene|NA|bound_elsewhere_windowed (ssRNA)
RNA: GGGAGUUCUACAGUCCGACGAUCGAACACGCUUUGGAAAAGGCAGCUCCUCUCCUUCGUGAGAUUUUUGUGGAUUUUGCACCUUUUCUUUCUCGGACACUUUUGGGUAGCCAUGGACAAGAACUGCUUAUAGAAGGAACAAGUCAACAGAGGAUUGAGCAUCA
B16: chr2:112756978:112757080:-|CDS|ENSG00000169607|unk|total|mutant (ssRNA)
RNA: GGGAGUUCUACAGUCCGACGAUCCUUCUGGGCAAAAGGCUGACUUCAGAAUGUGUUUCUUCUAACCCAUACUCUAAGCCUUCCCGCAAGAGUUUUCAACAGUGUGAAGCUGGAUCGUCCACAACAGGAGAACUGUCAAGAAAACAACAGAGGAUUGAGCAUCA
B17: chr19:36514967:36515079:-|CDS|ENSG00000254004|unk|total|mutant (ssRNA)
RNA: GGGAGUUCUACAGUCCGACGAUCCAUGAAUGCACUGAAUGUGGUAAAGUGUGCUCUCGAGUCUCAUCUCUUACUCUACACCUCCGAAGUCACACAGGAAAGAAGGCAUAUAAAUGUAAUAAAUGUGGAAAAGCCUUCAGCCAGCAACAGAGGAUUGAGCAUCA
B18: chr6:52502144:52502313:-|3pUTR|ENSG00000065308|msi1|total|mutant (ssRNA)
RNA: GGGAGUUCUACAGUCCGACGAUCUCAGCCAUUCACAAGCAUUCAAAACCAAACCAAACAGCAGUUCAUAUACCUGCCUGAGACCGGCUGGUCCUCACCUCCAGAGCCAGCCAGCCCCGUCAGGGGCCAAACUUACUACCUUGACAACAGAGGAUUGAGCAUCA
B19: chr13:106490488:106490589:-|3pUTR|ENSG00000125266|msi1|FALSE|unique (ssRNA)
RNA: GGGAGUUCUACAGUCCGACGAUCAGCCAUCAGAAGUUACUUUUAGGAUGGGGGAGAGGGGCGAGAAGGGGAAAAAUGGGAAAUAGUCUGAUUUUAAUGAAAUCAAAUGUAUGUAUCAUCAGUUGGCUACGUUUUGGUUCUAUGCAACAGAGGAUUGAGCAUCA
B20: ENSG00000107863:be:win_4151|CDS|ENSG00000107863|bound_else_gene|NA|bound_elsewhere_windowed (ssRNA)
RNA: GGGAGUUCUACAGUCCGACGAUCAUUCAGCUACUAGUGACUCAACAAAAUCUAAGGGUUCUUGGGGAUCUGGAAAGGAUCAGUAUAGCAGGGAACUGCUUGUGUCCUCCAUCUUUGCAGCUGCUAGUCGCAAGAGGAAGAAGCCAACAGAGGAUUGAGCAUCA
B21: chr5:154417748:154417849:+|3pUTR|ENSG00000164574|msi1|total|mutant (ssRNA)
RNA: GGGAGUUCUACAGUCCGACGAUCCAGCACCAGCUUUACAGGGCAGUGUUUCAGAUGGCCCUGAGCCCACGGAAAAGGCCAGGCCGACCUCCAAACCCGAAAUGCUGGCUGAUUUGCCCUGAUCCAUGCUUCCAUUUCCCUGUCCAACAGAGGAUUGAGCAUCA
B22: chr1:67003359:67003460:-|3pUTR|ENSG00000116704|msi1|FALSE|unique (ssRNA)
RNA: GGGAGUUCUACAGUCCGACGAUCACUCAAAAGCCGCAAAUCUGUAAAUUGGAUUAAGAACACCUGCCCUACCUACCCGGCAAUAGUGUGAAUCCAAAUGCUGCAAUGUGAGAUGAGGUACAAGUAAAGAGCUGUGUUUUGUAACAACAGAGGAUUGAGCAUCA

Here are results for 22 molecules from PMC12136788.

The other results are listed elsewhere or left out.

The assay addresses T1, UNK ZnF1-6 (called full-length). The assay is described as follows: nsRBNS (natural sequence RNA bind-n-seq); RBNS binding buffer (assumed for nsRBNS): 25 mM Tris pH 7.5, 150 mM KCl, 3 mM MgCl2, 0.01% Triton X-100, 500 ug/ml BSA, 20 U/ml SUPERase-In, 4 C; UNK is unkempt and MSI1 is Musashi-1; names of the RNAs are library labels; protein concentration not given here; high values mean tight binding.
Molecule B1 returned a binding signal of 0.965 enrichment R.
Molecule B2 came in with a binding signal of 0.394 enrichment R.
In the case of B3 it was 0.694 enrichment R; in that of B4, 1.07 enrichment R; in that of B5, 1.91 enrichment R.
Turning to B6, the binding signal amounted to 0.866 enrichment R.
In turn, B7 yielded a binding signal of 0.616 enrichment R.
The molecule B8 gave a binding signal of 0.503 enrichment R.
Take B9: the binding signal turned out to be 0.417 enrichment R.
With B10, the binding signal amounted to 1.54 enrichment R.
B11 came in with a binding signal of 2.18 enrichment R.
The figure for B12 is 0.697 enrichment R; for B13 it is 9 enrichment R; for B14 it is 0.393 enrichment R.
The molecule B15 came in with a binding signal of 0.859 enrichment R.
In the case of B16, the binding signal stood at 0.67 enrichment R.
Turning to B17, the binding signal stood at 0.434 enrichment R.
In the case of B18 it was 0.694 enrichment R.
Molecule B19 gave a binding signal of 4.55 enrichment R.
B20 registered a binding signal of 0.489 enrichment R.
B21 yielded a binding signal of 0.644 enrichment R.
The molecule B22 displayed a binding signal of 0.49 enrichment R.
